From paper PMC9911399, “Two distinct binding modes provide the RNA-binding protein RbFox with extraordinary sequence specificity”
Where a chain is given by its changes, count along the chain named. The list shows a part of the results.

T1: RBFOX1 RRM RbFoxmut (Fox-RRM*) (Homo sapiens, UniProt Q9NWB1 109-208, R118D;E147R;N151S;E152T)
T1 sequence: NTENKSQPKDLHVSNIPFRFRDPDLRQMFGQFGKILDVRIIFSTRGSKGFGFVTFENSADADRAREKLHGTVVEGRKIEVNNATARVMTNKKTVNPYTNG

B1: UCCAUAU (DNA:RNA)
RNA: GGGAGACCGGAAUUCAGAUUGUCCUCCAUAUUUAAAUCCCGUCGUAGCCACCA
DNA 1: CAATCTGAATTCCGGTCTCCC
DNA 2: TGGTGGCTACGACGGGATT
B2: GUUUAUA (DNA:RNA)
RNA: GGGAGACCGGAAUUCAGAUUGUCCGUUUAUAUUAAAUCCCGUCGUAGCCACCA
DNA 1: CAATCTGAATTCCGGTCTCCC
DNA 2: TGGTGGCTACGACGGGATT
B3: UUCCUUU (DNA:RNA)
RNA: B1 RNA with C26U, A28C, A30U
DNA 1: CAATCTGAATTCCGGTCTCCC
DNA 2: TGGTGGCTACGACGGGATT
B4: UAACUUC (DNA:RNA)
RNA: B1 RNA with C26A, C27A, A28C, A30U, U31C
DNA 1: CAATCTGAATTCCGGTCTCCC
DNA 2: TGGTGGCTACGACGGGATT
B5: GUGGACG (DNA:RNA)
RNA: B2 RNA with U27G, U28G, U30C, A31G
DNA 1: CAATCTGAATTCCGGTCTCCC
DNA 2: TGGTGGCTACGACGGGATT
B6: UGCUUCU (DNA:RNA)
RNA: B1 RNA with C26G, A28U, A30C
DNA 1: CAATCTGAATTCCGGTCTCCC
DNA 2: TGGTGGCTACGACGGGATT
B7: CUGAAUC (DNA:RNA)
RNA: B2 RNA with G25C, U27G, U28A, A31C
DNA 1: CAATCTGAATTCCGGTCTCCC
DNA 2: TGGTGGCTACGACGGGATT
B8: CACAUGU (DNA:RNA)
RNA: B1 RNA with U25C, C26A, A30G
DNA 1: CAATCTGAATTCCGGTCTCCC
DNA 2: TGGTGGCTACGACGGGATT
B9: CGGUUCG (DNA:RNA)
RNA: B2 RNA with G25C, U26G, U27G, A29U, U30C, A31G
DNA 1: CAATCTGAATTCCGGTCTCCC
DNA 2: TGGTGGCTACGACGGGATT
B10: ACGCAUC (DNA:RNA)
RNA: B2 RNA with G25A, U26C, U27G, U28C, A31C
DNA 1: CAATCTGAATTCCGGTCTCCC
DNA 2: TGGTGGCTACGACGGGATT
B11: GACCCCA (DNA:RNA)
RNA: B2 RNA with U26A, U27C, U28C, A29C, U30C
DNA 1: CAATCTGAATTCCGGTCTCCC
DNA 2: TGGTGGCTACGACGGGATT
B12: UCACGCC (DNA:RNA)
RNA: B1 RNA with C27A, A28C, U29G, A30C, U31C
DNA 1: CAATCTGAATTCCGGTCTCCC
DNA 2: TGGTGGCTACGACGGGATT
B13: GCUGAGG (DNA:RNA)
RNA: B2 RNA with U26C, U28G, U30G, A31G
DNA 1: CAATCTGAATTCCGGTCTCCC
DNA 2: TGGTGGCTACGACGGGATT
B14: ACCCUCG (DNA:RNA)
RNA: B1 RNA with U25A, A28C, A30C, U31G
DNA 1: CAATCTGAATTCCGGTCTCCC
DNA 2: TGGTGGCTACGACGGGATT
B15: UCCCGGA (DNA:RNA)
RNA: B1 RNA with A28C, U29G, A30G, U31A
DNA 1: CAATCTGAATTCCGGTCTCCC
DNA 2: TGGTGGCTACGACGGGATT
B16: UAGUAAU (DNA:RNA)
RNA: B1 RNA with C26A, C27G, A28U, U29A
DNA 1: CAATCTGAATTCCGGTCTCCC
DNA 2: TGGTGGCTACGACGGGATT
B17: AGGUUCA (DNA:RNA)
RNA: B2 RNA with G25A, U26G, U27G, A29U, U30C
DNA 1: CAATCTGAATTCCGGTCTCCC
DNA 2: TGGTGGCTACGACGGGATT
B18: UUUAGCU (DNA:RNA)
RNA: B1 RNA with C26U, C27U, U29G, A30C
DNA 1: CAATCTGAATTCCGGTCTCCC
DNA 2: TGGTGGCTACGACGGGATT
B19: ACUUCGA (DNA:RNA)
RNA: B2 RNA with G25A, U26C, A29C, U30G
DNA 1: CAATCTGAATTCCGGTCTCCC
DNA 2: TGGTGGCTACGACGGGATT
B20: UACCACG (DNA:RNA)
RNA: B1 RNA with C26A, A28C, U29A, A30C, U31G
DNA 1: CAATCTGAATTCCGGTCTCCC
DNA 2: TGGTGGCTACGACGGGATT
B21: CCGGCCC (DNA:RNA)
RNA: B1 RNA with U25C, C27G, A28G, U29C, A30C, U31C
DNA 1: CAATCTGAATTCCGGTCTCCC
DNA 2: TGGTGGCTACGACGGGATT
B22: GUAAAUA (DNA:RNA)
RNA: B2 RNA with U27A, U28A
DNA 1: CAATCTGAATTCCGGTCTCCC
DNA 2: TGGTGGCTACGACGGGATT
B23: UCCUUCG (DNA:RNA)
RNA: B1 RNA with A28U, A30C, U31G
DNA 1: CAATCTGAATTCCGGTCTCCC
DNA 2: TGGTGGCTACGACGGGATT
B24: GCCGCUA (DNA:RNA)
RNA: B2 RNA with U26C, U27C, U28G, A29C
DNA 1: CAATCTGAATTCCGGTCTCCC
DNA 2: TGGTGGCTACGACGGGATT
B25: ACCGAUG (DNA:RNA)
RNA: B2 RNA with G25A, U26C, U27C, U28G, A31G
DNA 1: CAATCTGAATTCCGGTCTCCC
DNA 2: TGGTGGCTACGACGGGATT
B26: GGUUGCA (DNA:RNA)
RNA: B2 RNA with U26G, A29G, U30C
DNA 1: CAATCTGAATTCCGGTCTCCC
DNA 2: TGGTGGCTACGACGGGATT
B27: CGCCGUU (DNA:RNA)
RNA: B1 RNA with U25C, C26G, A28C, U29G, A30U
DNA 1: CAATCTGAATTCCGGTCTCCC
DNA 2: TGGTGGCTACGACGGGATT
B28: GGUACAC (DNA:RNA)
RNA: B2 RNA with U26G, U28A, A29C, U30A, A31C
DNA 1: CAATCTGAATTCCGGTCTCCC
DNA 2: TGGTGGCTACGACGGGATT
B29: ACAGCUG (DNA:RNA)
RNA: B2 RNA with G25A, U26C, U27A, U28G, A29C, A31G
DNA 1: CAATCTGAATTCCGGTCTCCC
DNA 2: TGGTGGCTACGACGGGATT
B30: UUUCAUC (DNA:RNA)
RNA: B2 RNA with G25U, U28C, A31C
DNA 1: CAATCTGAATTCCGGTCTCCC
DNA 2: TGGTGGCTACGACGGGATT
B31: AGUAAGA (DNA:RNA)
RNA: B2 RNA with G25A, U26G, U28A, U30G
DNA 1: CAATCTGAATTCCGGTCTCCC
DNA 2: TGGTGGCTACGACGGGATT

What follows are binders tested against T1, RBFOX1 RRM RbFoxmut (Fox-RRM*) (assay: EMSA; HiTS-Eq, 1 nM pool, 10 min; buffer printed only for the single-RNA assays: 10 mM Tris pH 7.5, 150 mM NaCl, 3.4 mM EDTA, 0.001% NP-40, 30 C). Details: tags: His6 N-terminal (pET28a); label: 5' 32P.
Summary of the method: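 Relative association constants, normalised to the cognate motif, were derived by comparing read counts of each RNA species with those of the control reaction. The RNA sequenced was the free fraction, separated by 8% native PAGE after a 10 min equilibration in 50 µL of 1 nM 5′-radiolabelled RNA (7 randomized nucleotides) with increasing concentrations of purified wild-type or mutant RbFox RRM.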

In order of rising binding signal:
1. B21  0.0451 KA relative to UGCAUGU
2. B15  0.0511 KA relative to UGCAUGU
3. B4  0.0597 KA relative to UGCAUGU
4. B11  0.065 KA relative to UGCAUGU
5. B30  0.0667 KA relative to UGCAUGU
6. B28  0.0749 KA relative to UGCAUGU
7. B19  0.0758 KA relative to UGCAUGU
8. B3  0.079 KA relative to UGCAUGU
9. B29  0.0813 KA relative to UGCAUGU
10. B14  0.0841 KA relative to UGCAUGU
11. B12  0.0909 KA relative to UGCAUGU
12. B16  0.094 KA relative to UGCAUGU
13. B27  0.0982 KA relative to UGCAUGU
14. B13  0.101 KA relative to UGCAUGU
15. B22  0.107 KA relative to UGCAUGU
16. B5  0.109 KA relative to UGCAUGU
17. B31  0.109 KA relative to UGCAUGU
18. B18  0.111 KA relative to UGCAUGU
19. B24  0.112 KA relative to UGCAUGU
20. B25  0.115 KA relative to UGCAUGU
21. B20  0.116 KA relative to UGCAUGU
22. B1  0.118 KA relative to UGCAUGU
23. B17  0.118 KA relative to UGCAUGU
24. B23  0.127 KA relative to UGCAUGU
25. B2  0.13 KA relative to UGCAUGU
26. B6  0.137 KA relative to UGCAUGU
27. B8  0.15 KA relative to UGCAUGU
28. B26  0.245 KA relative to UGCAUGU
29. B7  0.315 KA relative to UGCAUGU
30. B10  0.355 KA relative to UGCAUGU
31. B9  0.371 KA relative to UGCAUGU
